# Source: ChEMBL document CHEMBL4888484, “Replenishing the malaria drug discovery pipeline: Screening and hit evaluation of the MMV Hit Generation Library 1 (HGL1) against asexual blood stage Plasmodium falciparum ,using a nano luciferase reporter read-out” (2022)
# In all, about 150,000 compounds went through this assay and about 540 (0.36%) showed an effect of 50% or more. This is one part of the list.
# Test system: Plasmodium falciparum
# Assay: Primary screen in NF54 nanoGlo assay, in single point, at 2uM, 72h; a lower Z score goes with more inhibition
# Type: functional, Erythrocyte
# Settings: timepoint 72 hour
Compound,% Inhibition [%],Z score
CCCCS(=O)(=O)N1CCC[C@H](Oc2nc(C3CC3)nc3c2CCOCC3)C1,-2,0.4
N#Cc1cc(F)cc(F)c1Br,-6,0.95
O=C(NCc1c(F)cccc1Cl)c1ccc(-c2ccc3c(c2)OCCO3)s1,-16,1.42
COc1ccnc(NCCCNc2nccc(OC)n2)n1,-4,0.53
Cc1cc(Cl)ccc1NC(=O)N1CCC[C@H]1c1nnc2n1CCN(C)CC2,30,-3.99
CC1CN(C(=O)Cn2cc(NC(=O)NC3CC=CCC3)cn2)CC(C)O1 (stereo unspecified),-11,1.76
CC1(C)CCC(c2nc(C3(S(C)(=O)=O)CCOCC3)no2)CC1,-5,0.82
Cc1cc(NC(=O)NC2(c3ccc(C#N)cc3)CCOCC2)c2ccccc2c1,-9,1.54
Cc1ccc2c(c1)CCCN2C(=O)[C@H]1CCS(=O)(=O)C1,-3,0.23
O=C1CN(C(=O)c2cscn2)CCN1Cc1ccc2c(c1)OCO2,-11,1.65
c1ccc(-n2nnnc2CN2CCn3ccnc3C2)cc1,-5,1.06
Cc1csc([C@H](C)NC(=O)N(Cc2ccccc2)CC(C)(C)O)n1,-5,0.6
c1cnc(-c2nccn2CCO[C@@H]2CCCCO2)cn1,5,-0.59
CCN1CCN(C(=O)C2(COC)CCC2)CC1(C)C,-7,1.1
CCN1CCC2C(C1)OCCN2C(=O)[C@H](OC)c1ccccc1 (stereo partly specified),-2,0.37
COc1cc(CN(C)Cc2cn(C)nc2C)ccc1OC[C@@H](O)CN1CCOCC1,-11,1.66
CN(Cc1ccccc1)Cc1cncc(-c2ccc(F)cc2F)c1,5,-0.48
CC(NC(=O)C1C(C)C=CC2C(=O)N(C)C(=O)C21)c1ccc(F)c(F)c1 (stereo unspecified),-3,0.58
CC(=O)Nc1ccc(NC(=O)CCc2ccc3nc(NC(C)=O)sc3c2)cc1,-15,1.53
Cn1cc(S(=O)(=O)NC(=O)C2=CCCCC2)c2ccccc21,-5,0.8
CCN(CC)c1onc(-c2ccccc2)c1CN(C(=O)c1ccccc1C)C(C)C,4,-0.56
COC1(CNC(=O)c2cnc(OC(C)C)c(Cl)c2)CCOCC1,-12,1.18

Compound,% Inhibition [%],Z score
COc1ccc(CN2C[C@H]3CCC[C@@H](O)[C@H]3C2)cc1Cn1cccn1,-1,0.06
CC1=C(C(=O)Nc2ccccc2)[C@H](c2cccc(O)c2)n2nc(-c3ccc(Cl)cc3)nc2N1,-5,0.6
O=C1O[C@H]2CCCCCC2=NN1c1ccc(Cl)cc1,-16,1.87
COc1ccc(C(=O)NC2Cc3ccccc3C2)o1,-4,0.47
COC[C@H](C)NC(=O)COc1ccc(OC)cc1C(=O)OC,-5,0.77
Cc1c(CNC2C[C@@H]3CCCC[C@H]23)cnn1C (stereo partly specified),-9,0.97
O=C(Cn1nc(C(F)F)c2c1CCC2)N1CCc2ccccc21,-1,0.14
Cc1[nH][nH]c(=O)c1CC(=O)NCC[C@H]1CCCOC1,-1,0.15
Cc1cc(C)nc(NC(=O)N2CCCC2)c1,-4,0.51
CCNC(=O)[C@H]1Cc2ccccc2CN1Cc1ccncc1F,1,-0.24
Cn1cc([C@H](NC(=O)CCc2ccncn2)c2ccccc2)cn1,1,-0.19
CN(C)c1ccc(NC(=O)CCn2ccc(=O)[nH]c2=O)cc1,-4,0.45
O=C(Nc1nc2cc3c(cc2s1)OCCCO3)c1cc(Br)ccc1Cl,14,-1.88
CCC(CC)C(=O)N1CC[C@H]2CC(=O)Nc3ccc(-c4cnn(C)c4)cc3OCC[C@H]2C1,-11,1.71
COc1cccc(CN(C(=O)NCc2ccccc2)C2CCC(O)CC2)c1 (stereo unspecified),-12,1.26
C[C@H]1c2ccccc2CCN1C(=O)c1cn(Cc2cccs2)nn1,-38,4.47
COc1cccc(S(=O)(=O)N2CCCC[C@H]2c2nnc(-c3ccccc3)[nH]2)c1,-7,1.31
Cc1ccc(NC(=O)N2CCC[C@H](Cn3cnc4cccnc43)C2)c(Cl)c1,-4,0.66
N#Cc1c(NC(=O)CN2C(=O)CCC2=O)sc2c1CCCC2,-9,1.56
CN(CC(F)(F)F)C(=O)c1ccc[nH]1,4,-0.5
O=S(=O)(c1cccs1)N(CCO)CCO,-2,0.27
C#CCCCCC(=O)Nc1ccc(C#N)cn1,4,-0.84

Compound,% Inhibition [%],Z score
CCCCOCC(=O)N1CCC[C@H](c2cc(N3CCOCC3)ncn2)C1,4,-0.77
CCC[C@H]1CN(c2ncnc3[nH]ccc23)C[C@@H]1C(=O)O,-5,1.06
Cc1ccsc1CNc1nc2ccccc2o1,-12,1.56
COCC1(CNC(=O)C2CCCCCC2)CCC1,-2,0.27
Cc1cc(C)c(C#N)c(N2C[C@@H](CN3CCCCC3)[C@@H](CO)C2)n1,-13,1.18
O=S(=O)(CCN1CCOc2ccccc21)c1ccccc1,-9,0.97
CCN(CC)S(=O)(=O)c1ccc(Cl)c(S(=O)(=O)Nc2ncccn2)c1,-10,0.98
CC(C)(NCc1ccccc1Cl)C(=O)O,36,-1.19
CCOC1CC(O)(CNC(=O)Nc2cccnc2)C1 (stereo unspecified),3,-0.46
CC(C)Cn1cc(S(=O)(=O)Nc2cccc(C#N)c2)c2cccnc21,3,-0.49
CCc1nn(C)c(OC)c1CNC(=O)CC#N,1,-0.11
CNC(=O)CC(=O)OCC(=O)Nc1ccccc1C(F)(F)F,32,-3.66
Cc1ccc(OCCNC(=O)N2CCN(CC3CC3)[C@@H](CCO)C2)cc1C,-14,2.33
COc1cc(OC)c(OC)cc1CNC(C)C,31,-4.5
Cc1cccc(C2(O)CCN(C(=O)CCc3ccccc3)CC2)c1C,3,-0.36
CC(C)C[C@H](N)C(=O)N(C)Cc1ccccn1,5,-0.62
Cc1ccc(-n2cc(-c3ccccc3)nc2NC(=O)CN(C(=O)c2ccco2)C(C)C)cc1C,3,-0.49
CCC(CO)(CO)NC(=O)C1CC1C1CC1 (stereo unspecified),-9,1.04
Cc1ccc(NC(=O)COc2cc(C)c(C)nn2)cc1,-4,0.6
CCN1CCC(NC(=O)c2c[nH]nn2)C1c1ccc(Cl)c(F)c1 (stereo unspecified),1,-0.09
COCCOCC(=O)N1CCC(F)(C(=O)N2CCCC2)CC1,-10,1.33
Cn1cncc1-c1cc(-c2ccccc2C(F)(F)F)nc(N)c1C#N,15,-2.1

Compound,% Inhibition [%],Z score
CC(C)Cn1[nH]c(CC(=O)N2CCC=C(c3ccccn3)C2)cc1=O,0,-0.08
CC(=O)NCC1CCN(CC(=O)N(Cc2ccccc2)C2CC2)CC1,-5,0.6
CC[C@H](NS(=O)(=O)c1ccccc1)c1ncnn1CC,6,-1.13
CC(C)(NC(=O)c1cncc(-n2ccnn2)c1)C(F)(F)F,-4,0.34
COc1ccc(NC(=O)C[C@H]2CCCCN(Cc3ccccc3)C2=O)c(C)c1,-13,2.55
N#CC1(CS(=O)(=O)N2CCO[C@@H](CF)C2)CCCC1,-7,1.09
O=C(N[C@H]1CNC[C@@H]1O)c1csc(-c2ccc(C(F)(F)F)cc2)n1,15,-2.04
COCC(=O)N(CCN1CCOCC1)CC(=O)N1N=C(c2ccccc2Cl)C[C@H]1c1ccc(OC)cc1,-7,1.21
CCCN1C[C@@H]2CC[C@H]1CN(C(=O)c1ccc(C(=O)N3CCOCC3)cc1)C2,17,-2.13
COC[C@@H]1CCC[C@@H]1NC(=O)c1ccc(C)cc1O,-6,1.03
Cc1ccccc1[C@@H](N)c1cccs1,-12,1.59
c1ccc2c(c1)ncn2CCn1cnc2ccccc21,-5,0.99
O=S(=O)(NCCc1n[nH]c(-c2ccc(Cl)cc2)n1)c1ccccc1,-8,1.45
CC(C)CCC(=O)N1CCC(CN2C[C@@H](C(=O)N3CCOCC3)CC2=O)CC1,9,-1.17
Cn1c(C(=O)NCC2CC2)cc2c(Cl)cccc21,-7,0.96
NC(=O)CC[C@H](NC(=O)OCc1ccccc1)C(=O)NCC1CCCCC1,27,-3.69
Cc1cc(NS(C)(=O)=O)ccc1N,-6,0.71
Cc1ccc(S(=O)(=O)c2ncccc2CNC2CC2)cc1,-17,1.93
O=C(C1CCC1)N1CCCc2ccccc21,4,-0.66
O=C(c1cnn(-c2ccccc2)n1)N1CC(N2C(=O)C3CC=CCC3C2=O)C1 (stereo unspecified),-4,0.4
Cc1cncc(C(=O)N[C@@H](C)CC(=O)c2ccc(F)cc2)c1,-5,0.76
O=C(NCCc1c[nH]c2ccccc12)c1ccc2c(c1)OCCO2,-29,3.42
